From PubChem BioAssay AID1346428 (National Center for Advancing Translational Sciences (NCATS), 2018)
In all, about 48,000 compounds went through this assay and about 1,200 (2.5%) were called active. Roughly 2% stayed inconclusive and do not appear here.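 How the source made its calls: active means activation of at least 60% and not above a set upper limit (about 1 call in 100 departs from these limits); inconclusive means activation of 40% to 60%, or above that upper limit; inactive means activation under 40%.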 Some of the results follow.

The compounds below were run against Probable G-protein coupled receptor 32 (Homo sapiens) (UniProt O75388) (assay: qHTS for Agonists of Human Resolvin D1 Receptor DRV1). Settings: CHO-K1 GPR32 beta-arrestin PathHunter luminescence, 90 min; at 76.9 µM; stronger effect = higher value; zero percent set by DMSO-only wells.
Summary of the method: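 Readings come from a cell-based beta-arrestin complementation format: CHO-K1 GPR32 stable cells (2,500/well) treated 90 min with compounds, then beta-Gal substrate added for 1 h before chemiluminescence imaging.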
Further: 0% is about no effect.

Sequence of UniProt O75388 (O75388 whole entry, looked up): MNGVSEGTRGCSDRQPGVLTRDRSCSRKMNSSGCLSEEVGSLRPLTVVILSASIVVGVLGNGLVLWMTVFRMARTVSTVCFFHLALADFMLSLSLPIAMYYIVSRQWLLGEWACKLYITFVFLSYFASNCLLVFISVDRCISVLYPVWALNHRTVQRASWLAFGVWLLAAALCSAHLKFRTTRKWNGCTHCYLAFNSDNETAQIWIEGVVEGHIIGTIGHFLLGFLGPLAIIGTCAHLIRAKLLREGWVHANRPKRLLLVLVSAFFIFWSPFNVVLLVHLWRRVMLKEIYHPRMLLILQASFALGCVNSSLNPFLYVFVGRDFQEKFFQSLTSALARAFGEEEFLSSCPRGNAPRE

activation, inactive:
O=Nc1c(-c2c(O)[nH]c3ccccc23)[nH]c2ccccc12 -33.8%
Cc1ccc(C(=O)c2cc(O)c(O)c([N+](=O)[O-])c2)cc1 -62.4%
Cc1cccc(-n2ncc(C(=O)N3CCOCC3)c2C2CCN(C(=O)OC(C)(C)C)CC2)c1 -4.61%
CC(C)N(C(=O)Cn1cc(SCC(=O)Nc2ccccc2F)c2ccccc21)C(C)C -6.34%
CCOc1ccc(C(=O)NCc2ccc3c(c2)CCN3C(=O)c2ccc(Cl)cc2)cc1 -9.55%
O=C(NC1CC(=O)N(c2cccc(F)c2)C1)c1cccs1 (configuration not stated) 0.106%
Cc1ccccc1Nc1cc(C(=O)NCCCN2CCN(c3cccc(Cl)c3)CC2)c2ccccc2n1 -3.16%
Cc1c(Cl)cccc1NC(=O)N1CCN(C(=O)c2nsc3ccccc23)CC1 -9.37%
CCc1ccc(OCC(=O)NC(Cc2c[nH]c3ccccc23)C(=O)O)cc1 (configuration not stated) 6.86%
CC(C)C(=O)Nc1ccc2nc(SCC(=O)N3CCCC3)sc2c1 -7.35%
CCCN(C(=O)c1cc2c(=O)oc3ccccc3c2s1)c1ccc(CC)cc1 5.88%
Cc1c(CCC(=O)NCCc2ccccc2)c(=O)oc2c(C)c(O)ccc12 0.118%
CCc1ccc(NC(=O)c2ccc(CN3CC(=O)N4CCCCC4C3=O)cc2)cc1 (configuration not stated) -17.8%
Cc1ccc(C(C)C)c(OCCSc2nc(-c3ccccc3F)nc3cc(=O)[nH]n23)c1 -31.6%
COc1cccc(C(=O)NCc2ccc3c(c2)CCN3C(=O)c2ccncc2)c1 -6.92%
COc1ccc(-n2c3c(c(=O)[nH]c2=O)C(NC(=O)c2ccccc2Cl)(C(F)(F)F)C(=O)N3)cc1 (configuration not stated) -8.07%
COc1cccc(CNC(=O)Cn2c(=O)ccc3cc(S(=O)(=O)N4CCC(C)CC4)ccc32)c1 9.67%
COc1ccc(-c2[nH]c(-c3cccc(OC)c3)nc2SCC(=O)Nc2ccc3c(c2)OCO3)cc1 -32.4%
COc1ccc(CNc2nc(SCc3ccc(Cl)cc3)nc3ccccc23)cc1 -12.5%
O=C(Nc1ccc(C(=O)N2CCN(c3cccc(Cl)c3)CC2)cc1)c1nsc2ccccc12 -9.86%
CCCCCN1C(C(=O)c2ccccc2)=C(NC(=O)c2ccc(OC)cc2)c2ccccc2S1(=O)=O 24%
COc1ccc(-c2c3c(=O)n(C)c(=O)n(C)c3c3n2-c2ccccc2NC3c2ccc(OC)cc2)cc1 (configuration not stated) -11%
Cc1ccc(NC(=O)c2cc(S(=O)(=O)N(C)C3CCCCC3)ccc2F)cc1C -12.7%
COc1ccccc1C(=O)Oc1c(Sc2ccccc2)c(C)nn1C(C)(C)C -8.25%
CCN(c1cccc(C)c1)S(=O)(=O)c1ccc(N2CCCCS2(=O)=O)cc1 26.5%
COc1ccc(NC(=O)c2ccc(-c3nc(CSc4ccc(C)cc4)c(C)o3)cc2)cc1Cl -4.2%
CCc1nnc(NC(=O)c2nc(S(=O)(=O)Cc3ccc(C)cc3)ncc2Cl)s1 4.11%
Cc1cc(C)c(NC(=O)C(C)n2c(=O)c(C(F)(F)F)nc3ccccc32)c(C)c1 (configuration not stated) 8.23%
CCC(=O)N1CCc2cc(S(=O)(=O)NC(C(=O)NCCc3ccccc3)C(C)C)ccc21 (configuration not stated) -1.77%
Cc1cccc(-n2ncc(C(=O)N3CCN(C4CCCCC4)CC3)c2C2CCN(C(=O)OC(C)(C)C)CC2)c1 -22.3%
COc1ccc(OC)c2sc(NC(=O)c3ccc(S(=O)(=O)N4CCCC4)cc3)nc12 -19%
Cc1cc(C)cc(OCC(=O)Nc2nc3c(s2)CC(C(C)(C)C)CC3)c1 (configuration not stated) 0.69%
CCOC(=O)CC(NC(=O)CCc1c(C)nc2c(c(C)nn2-c2ccc(C)c(C)c2)c1C)c1ccc(C)cc1 (configuration not stated) -3.65%
Cc1cc(C)c(S(=O)(=O)Nc2ccc(-c3ccc(N4CCC(C)CC4)nn3)cc2)cc1C -7.68%
Cc1cccc(C)c1Nc1c(-c2ccccc2F)nc2cccc(C)n12 -35.3%
COc1ccc(OCC(=O)Nc2nnc(S(=O)(=O)N3CCc4ccccc43)s2)cc1 31%
CCCCN(CC)CCNC(=O)c1c(C)oc2ncnc(N3CCOCC3)c12 -5.56%
CCOc1ccc(C(=O)/C=C/c2cn(CC(O)CN3CCCCCC3)c3ccccc23)cc1 (configuration not stated) 10.9%
CCOC(=O)c1ccccc1NC(=O)C1CCN(c2ncnc3c2nc2n3CCCCC2)CC1 -17.7%
Cc1ccccc1C(=O)Nc1cc2c(cc1N1CCOCC1)n(C)c(=O)n2C 5.48%
Cc1ccc2oc3c(c(=O)c2c1)C(c1ccc(O)cc1)N(Cc1ccc2c(c1)OCO2)C3=O (configuration not stated) -16.6%
CCOc1ccc(C(=O)c2cn(CC(=O)Nc3ccc(OC)cc3)c3cc4c(cc3c2=O)OCCO4)cc1 1.9%
CCC1(C)CC(=O)c2c(ccc3oc(C(=O)NCc4ccccc4)c(C)c23)O1 (configuration not stated) -20.1%
COc1ccc2[nH]c(=O)c(CN(C(=O)c3cccc(Cl)c3)c3ccccc3C)cc2c1 -3.92%
COc1ccc2occ(CC(=O)Nc3ccc(S(=O)(=O)Nc4nccc(C)n4)cc3)c2c1 -7.84%
Cc1ccc(CNC(=O)c2sc3nc[nH]c(=O)c3c2C)cc1 -5.51%
CC1CN(c2ccc(Cl)cc2)c2nc3c(c(=O)n(CC(=O)O)c(=O)n3C)n2C1 (configuration not stated) -5.17%
CN1C2CCCC1CC(NC(=O)c1nn(C)c3ccccc13)C2 (configuration not stated) -3.93%
Cc1cc2nnc(SCc3ccc(F)cc3)n2c2ccccc12 14.1%
CC(C)CCn1c(=O)c2cccnc2n(CC(=O)Nc2ccc(F)cc2)c1=O -1.2%
COc1cccc(-c2cc(C(=O)Nc3c(C)nn(Cc4ccccc4Cl)c3C)no2)c1 -8.65%
C#CCn1c(C2CC(=O)N(c3ccc(OC)cc3)C2)nc2ccccc21 (configuration not stated) -1.98%
CN1CCN(C2(CNC(=O)c3ccc(C(C)(C)C)cc3)CCCCC2)CC1 -4%
Cc1cccc(-n2ncc(C(=O)N3CCN(c4ccc(Cl)cc4)CC3)c2C2CCN(C(=O)OC(C)(C)C)CC2)c1 -19.2%
O=C1OC(C(=O)Nc2cccc(Br)c2)Cc2ccccc21 (configuration not stated) -16%
Cn1nc(C(=O)NCc2ccc(Cl)cc2)c2c1-c1ccccc1S(=O)(=O)C2 -3.66%
Cc1ccc(OCc2nc(-c3ccc(C(=O)N4CCN(c5ccccc5F)CC4)cc3)oc2C)cc1 -7.89%
COc1ccc(OC)c(CNC(=O)c2cc3c(-c4ccc(OC)c(OC)c4)nn(C)c3s2)c1 -4.81%
CCc1ccc2nc(N(CCN(CC)CC)C(=O)c3ccco3)sc2c1 47.8%
Cc1ccc(NC(=O)c2ccc(-c3cccc(Cl)c3C)o2)cc1 -12.6%
CCCCCn1c(=O)[nH]c2cc(C(=O)Nc3cc(C)cc(C)c3)ccc2c1=O 6.25%
CN(C)S(=O)(=O)N(CC(=O)NCCSCc1ccccc1)c1ccccc1 12%
Cc1ccc(C)c(NC(=O)CN2CCCN(Cc3cccc(Cl)c3)S2(=O)=O)c1 -11.6%
COc1ccc(Cl)cc1NC(=O)c1cc(S(=O)(=O)NC2CCCCCC2)ccc1F -31.8%
Cc1cccc(N2C(=O)N(CC(=O)C(C)(C)C)c3ccccc3S2(=O)=O)c1C -19.1%
Cc1cc(OC(C)C(=O)Nc2c(C(=O)c3ccc(F)cc3)oc3ccccc23)ccc1Cl (configuration not stated) 8.86%
Cc1cccc(NC(=O)CSc2cn(CC(=O)N3CCCCCC3)c3ccccc23)c1 -12.8%
CCc1ccc(Sc2cc(C(=O)NCc3ccccc3OC)c3ccccc3n2)cc1 -1.33%
CCc1ccc(Sc2cc(C(=O)NCc3cccc(OC)c3)c3ccccc3n2)cc1 5.63%
COc1ccc(C2NC(=O)N(C)C3=C2C(=O)N(c2cccc(Cl)c2)C3)cc1 (configuration not stated) -2.65%
CCOc1ccc(N2CC(NC(=O)C(=O)c3c[nH]c4ccccc34)CC2=O)cc1 (configuration not stated) 10.9%
CCn1c(=O)cc(SCC(=O)NCc2ccc(F)cc2Cl)c2ccccc21 12.6%
COC(=O)c1ccc(OCC2c3cc(OC)c(OC)cc3CCN2C(=O)Cc2ccc(OC)cc2)cc1 (configuration not stated) -12.7%
Cc1c(Cl)cccc1NC(=O)c1cccc(NC(=O)N2CCSc3ncccc32)c1 6.65%
CC(NC(=O)c1ccc2c(c1)CCN2S(C)(=O)=O)c1ccccc1 (configuration not stated) 8.23%
CCOc1ccc(NC(=O)CSC2=Nc3ccccc3C3=NC(CCC(=O)NCc4ccccc4)C(=O)N23)cc1 (configuration not stated) -9.62%
Cc1ccc(CNC(=O)c2ccc3c(c2)nc(C)n3-c2cccc(F)c2)cc1 -29%
CCCCOc1ccc(-c2nn(-c3ccccc3)cc2C2NC(=O)NC(C)=C2C(=O)OCC)cc1 (configuration not stated) 27.8%
Cc1cc2oc(C(=O)Nc3ccc(S(N)(=O)=O)cc3)cc(=O)c2cc1C -5.76%
O=C(c1cc2ccccc2oc1=O)N1CCN(c2ccc(Cl)cc2)CC1 26.1%
O=C(NCCc1ccccc1)c1cnc2sc(N3CCCCCC3)nn2c1=O 0.483%
COc1ccc(OCC(=O)NCc2ccc3c(c2)CCN3C(=O)c2ccccc2)cc1 -6.44%
